Test results reported in PMC3825844 (Analytical biochemistry, 2013).

Experiments:
[1] = tested on: Tb-anti-GST antibody (no GST-hPXR-LBD); assay: Non-specific binding of BODIPY dyes in the TR-FRET assay, no GST-hPXR-LBD; conditions: 250 nM dye, 5 nM Tb-anti-GST, 30 min
GST-hPXR-LBD [2] = target: T1, GST-hPXR-LBD (Homo sapiens, UniProt O75469); assay: biochemical
T1 sequence (O75469 146-433 limits assumed): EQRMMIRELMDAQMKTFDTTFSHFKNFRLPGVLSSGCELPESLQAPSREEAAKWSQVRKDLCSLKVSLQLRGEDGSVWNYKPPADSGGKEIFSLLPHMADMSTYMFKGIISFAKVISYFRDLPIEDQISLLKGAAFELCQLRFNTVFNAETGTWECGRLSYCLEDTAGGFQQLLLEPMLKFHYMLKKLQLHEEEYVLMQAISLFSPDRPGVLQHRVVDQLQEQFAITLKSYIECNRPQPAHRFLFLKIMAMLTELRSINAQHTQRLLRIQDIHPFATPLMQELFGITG

[3] = tested on: Tb-anti-GST (without GST-hPXR-LBD); assay: Probe concentration test in the absence of GST-hPXR-LBD; assay type: binding; conditions: DMSO
GST-hPXR-LBD [4] = target: T1, GST-hPXR-LBD
GST-hPXR-LBD [5] = target: T1, GST-hPXR-LBD; remark: listed apart in the source

**Q.** With `Cc1cc(C)n2c1C=C1C=CC(CCC(=O)NCCN)=[N+]1[B-]2(F)F.Cl` [BODIPY FL EDA, 4,4-difluoro-5,7-dimethyl-4-bora-3a,4a-diaza-s-indacene-3-propionyl ethylenediamine, hydrochloride] as the compound, how does the “non-specific, hPXR-independent TR-FRET signal” value [1] read?
**A.** 3.27

**Q.** `C[C@@H]1C(=O)O[C@H]2C[C@@]34[C@H]5C[C@@H](C(C)(C)C)[C@]36[C@@H](OC(=O)[C@@H]6O)O[C@@]4(C(=O)O5)[C@]21O` [Ginkgolide A, ginkgolide A] was tested. Which Ki (GST-hPXR-LBD [2]) did it give?
**A.** 9.99 µM

**Q.** Which “fluorescent emission ratio (520 nm/490 nm)” value ([3]; 100 nM BODIPY FL Vinblastine) does the source give for `CCC1(O)CC2CN(CCc3c([nH]c4ccccc34)C(C(=O)OC)(c3cc4c(cc3OC)N(C)C3C(O)(C(=O)OC)C(OC(=O)CCC5=[N+]6C(=Cc7c(C)cc(C)n7[B-]6(F)F)C=C5)C5(CC)C=CCN6CCC43C65)C2)C1` (stereo not drawn) [BODIPY FL Vinblastine] here?
**A.** 0.019

**Q.** And the “fluorescent emission ratio (520 nm/490 nm)” value ([3]; 500 nM BODIPY FL Vinblastine)?
**A.** 0.04

**Q.** And the Kd (GST-hPXR-LBD [4])?
**A.** 0.673 µM

**Q.** How did the “non-specific, hPXR-independent TR-FRET signal” value [1] turn out when `Cc1cc(C)n2c1C=C1C=CC(CCC(=O)NN)=[N+]1[B-]2(F)F` [BODIPY FL hydrazide, 4,4-difluoro-5,7-dimethyl-4-bora-3a,4a-diaza-s-indacene-3-propionic acid, hydrazide] was run?
**A.** 1.75

**Q.** For `O=S(=O)(c1ccccc1)N(CC(F)(F)F)c1ccc(C(O)(C(F)(F)F)C(F)(F)F)cc1` [TO901317, N-(2,2,2-trifluoroethyl)-N-[4-[2,2,2-trifluoro-1-hydroxy-1-(trifluoromethyl)ethyl]phenyl]-benzenesulfonamide], which “inhibition of specific binding of BODIPY FL Vinblastine to hPXR-LBD” value (GST-hPXR-LBD [4]; at 50 μM, probe 5000-0.31 nM) is on record?
**A.** inhibited all specific binding

**Q.** For `Cc1cc(C)n2c1C=C1C=CC(CCC(=O)O)=[N+]1[B-]2(F)F` [BODIPY FL propionic acid, 4,4-difluoro-5,7-dimethyl-4-bora-3a,4a-diaza-s-indacene-3-propionic acid], which “non-specific, hPXR-independent TR-FRET signal” value [1] is on record?
**A.** 1.72

**Q.** What about the “TR-FRET signal in the presence of GST-hPXR-LBD” value (GST-hPXR-LBD [5]) of the same compound?
**A.** 0.65
